# From the supplement of paper PMC8728848
# Some of the results follow.
# B1: E-Selectin (Mus musculus), Q00690 (protein)
# chain: MNASRFLSALVFVLLAGESTAWYYNASSELMTYDEASAYCQRDYTHLVAIQNKEEINYLNSNLKHSPSYYWIGIRKVNNVWIWVGTGKPLTEEAQNWAPGEPNNKQRNEDCVEIYIQRTKDSGMWNDERCNKKKLALCYTASCTNASCSGHGECIETINSYTCKCHPGFLGPNCEQAVTCKPQEHPDYGSLNCSHPFGPFSYNSSCSFGCKRGYLPSSMETTVRCTSSGEWSAPAPACHVVECEALTHPAHGIRKCSSNPGSYPWNTTCTFDCVEGYRRVGAQNLQCTSSGIWDNETPSCKAVTCDAIPQPQNGFVSCSHSTAGELAFKSSCNFTCEQSFTLQGPAQVECSAQGQWTPQIPVCKAVQCEALSAPQQGNMKCLPSASGPFQNGSSCEFSCEEGFELKGSRRLQCGPRGEWDSKKPTCSAVKCDDVPRPQNGVMECAHATTGEFTYKSSCAFQCNEGFSLHGSAQLECTSQGKWTQEVPSCQVVQCPSLDVPGKMNMSCSGTAVFGTVCEFTCPDDWTLNGSAVLTCGATGRWSGMPPTCEAPVSPTRPLVVALSAAGTSLLTSSSLLYLLMRYFRKKAKKFVPASSCQSLQSFENYHVPSYNV
# Key:
# Experiment in all cases: glycan array binding signal (z-score within array); higher = stronger binding
# Settings in all cases: glycan notation: IUPAC condensed, linker removed
# Gal(a1-6)Glc = molecular target: Gal(a1-6)Glc
# Procedure, shortened: (§1)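 The binding signal is a Z-score computed within each array and averaged over linkers. Arrays of the same protein sequence at different concentrations or buffers were also averaged together. Data originate from 3228 arrays in the Consortium for Functional Glycomics database, kept only where the protein sequence was available.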
# Gal(b1-2)Gal = molecular target: Gal(b1-2)Gal
# Procedure, shortened: as §1
# Gal(b1-3)Gal = molecular target: Gal(b1-3)Gal
# Procedure, shortened: as §1
# Gal(b1-3)Gal(b1-4)GlcNAc = molecular target: Gal(b1-3)Gal(b1-4)GlcNAc
# Procedure, shortened: as §1
# Gal(b1-3)GalNAc = molecular target: Gal(b1-3)GalNAc
# Procedure, shortened: as §1
# [1] = molecular target: Gal(b1-3)GalNAc(b1-3)Gal(a1-4)Gal(b1-4)Glc
# Procedure, shortened: as §1
# [2] = molecular target: Gal(b1-3)GalNAc(b1-4)Gal(b1-4)Glc
# Procedure, shortened: as §1
# [3] = molecular target: Gal(b1-3)GalNAc(b1-4)[Neu5Ac(a2-3)]Gal(b1-4)Glc
# Procedure, shortened: as §1
# Gal(b1-3)GlcNAc = molecular target: Gal(b1-3)GlcNAc
# Procedure, shortened: as §1
# [4] = molecular target: Gal(b1-3)GlcNAc(b1-2)Man(a1-3)[Gal(b1-3)GlcNAc(b1-2)Man(a1-6)]Man(b1-4)GlcNAc(b1-4)GlcNAc
# Procedure, shortened: as §1
# [5] = molecular target: Gal(b1-3)GlcNAc(b1-3)Gal(b1-3)GlcNAc
# Procedure, shortened: as §1
# [6] = molecular target: Gal(b1-3)GlcNAc(b1-3)Gal(b1-4)Glc
# Procedure, shortened: as §1
# [7] = molecular target: Gal(b1-3)GlcNAc(b1-3)Gal(b1-4)GlcNAc
# Procedure, shortened: as §1
# [8] = molecular target: Gal(b1-3)[Fuc(a1-4)]GlcNAc
# Procedure, shortened: as §1
# [9] = molecular target: Gal(b1-3)[Fuc(a1-4)]GlcNAc(b1-3)Gal(b1-3)[Fuc(a1-4)]GlcNAc
# Procedure, shortened: as §1
# [10] = molecular target: Gal(b1-3)[Fuc(a1-4)]GlcNAc(b1-3)Gal(b1-4)GlcNAc
# Procedure, shortened: as §1
# [11] = molecular target: Gal(b1-3)[Fuc(a1-4)]GlcNAc(b1-3)Gal(b1-4)[Fuc(a1-3)]GlcNAc
# Procedure, shortened: as §1
# [12] = molecular target: Gal(b1-3)[GlcNAc(b1-6)]GalNAc
# Procedure, shortened: as §1
# [13] = molecular target: Gal(b1-3)[Neu5Ac(a2-6)]GalNAc
# Procedure, shortened: as §1
# [14] = molecular target: Gal(b1-3)[Neu5Ac(a2-6)]GlcNAc(b1-6)Gal(b1-4)Glc
# Procedure, shortened: as §1
# [15] = molecular target: Gal(b1-3)[Neu5Ac(b2-6)]GalNAc
# Procedure, shortened: as §1
# [16] = molecular target: Gal(b1-4)GalNAc(a1-3)[Fuc(a1-2)]Gal(b1-4)GlcNAc
# Procedure, shortened: as §1
# [17] = molecular target: Gal(b1-4)GalNAc(b1-3)[Fuc(a1-2)]Gal(b1-4)GlcNAc
# Procedure, shortened: as §1
# Gal(b1-4)Glc = molecular target: Gal(b1-4)Glc
# Procedure, shortened: as §1
# Gal(b1-4)Glc6S = molecular target: Gal(b1-4)Glc6S
# Procedure, shortened: as §1
# Gal(b1-4)GlcNAc = molecular target: Gal(b1-4)GlcNAc
# Procedure, shortened: as §1
# [18] = molecular target: Gal(b1-4)GlcNAc(a1-6)Gal(b1-4)GlcNAc
# Procedure, shortened: as §1
# [19] = molecular target: Gal(b1-4)GlcNAc(b1-2)Man(a1-3)[Gal(b1-4)GlcNAc(b1-2)Man(a1-6)]Man(b1-4)GlcNAc(b1-4)GlcNAc
# Procedure, shortened: as §1
# [20] = molecular target: Gal(b1-4)GlcNAc(b1-3)Gal(b1-3)GlcNAc
# Procedure, shortened: as §1
# [21] = molecular target: Gal(b1-4)GlcNAc(b1-3)Gal(b1-4)Glc
# Procedure, shortened: as §1
# [22] = molecular target: Gal(b1-4)GlcNAc(b1-3)Gal(b1-4)GlcNAc
# Procedure, shortened: as §1
# [23] = molecular target: Gal(b1-4)GlcNAc(b1-3)Gal(b1-4)GlcNAc(b1-3)Gal(b1-4)GlcNAc
# Procedure, shortened: as §1
# [24] = molecular target: Gal(b1-4)GlcNAc(b1-3)Gal(b1-4)[Fuc(a1-3)]GlcNAc(b1-3)Gal(b1-4)[Fuc(a1-3)]GlcNAc
# Procedure, shortened: as §1
# [25] = molecular target: Gal(b1-4)GlcNAc(b1-3)GalNAc
# Procedure, shortened: as §1
# [26] = molecular target: Gal(b1-4)GlcNAc(b1-3)[Gal(b1-4)GlcNAc(b1-6)]Gal(b1-4)GlcNAc
# Procedure, shortened: as §1
# [27] = molecular target: Gal(b1-4)GlcNAc(b1-3)[Gal(b1-4)GlcNAc(b1-6)]GalNAc
# Procedure, shortened: as §1
# [28] = molecular target: Gal(b1-4)GlcNAc(b1-3)[GlcNAc(b1-6)]Gal(b1-4)GlcNAc
# Procedure, shortened: as §1
# [29] = molecular target: Gal(b1-4)GlcNAc(b1-6)Gal(b1-4)GlcNAc
# Procedure, shortened: as §1
# [30] = molecular target: Gal(b1-4)GlcNAc(b1-6)Gal(b1-4)GlcNAc(b1-6)GalNAc
# Procedure, shortened: as §1
# [31] = molecular target: Gal(b1-4)GlcNAc(b1-6)GalNAc
# Procedure, shortened: as §1
# [32] = molecular target: Gal(b1-4)GlcNAc(b1-6)[Gal(b1-3)]GalNAc
# Procedure, shortened: as §1
# Gal3S(b1-3)GalNAc = molecular target: Gal3S(b1-3)GalNAc
# Procedure, shortened: as §1
# Gal3S(b1-3)GlcNAc = molecular target: Gal3S(b1-3)GlcNAc
# Procedure, shortened: as §1
# [33] = molecular target: Gal3S(b1-3)[Fuc(a1-4)]GlcNAc
# Procedure, shortened: as §1
# Gal3S(b1-4)Glc = molecular target: Gal3S(b1-4)Glc
# Procedure, shortened: as §1
# Gal3S(b1-4)Glc6S = molecular target: Gal3S(b1-4)Glc6S
# Procedure, shortened: as §1
# Gal3S(b1-4)GlcNAc = molecular target: Gal3S(b1-4)GlcNAc
# Procedure, shortened: as §1
# Gal3S(b1-4)GlcNAc6S = molecular target: Gal3S(b1-4)GlcNAc6S
# Procedure, shortened: as §1
# [34] = molecular target: Gal3S(b1-4)[Fuc(a1-3)]Glc
# Procedure, shortened: as §1
# Gal3S4S(b1-4)GlcNAc = molecular target: Gal3S4S(b1-4)GlcNAc
# Procedure, shortened: as §1
# Gal3S6S(b1-4)GlcNAc = molecular target: Gal3S6S(b1-4)GlcNAc
# Procedure, shortened: as §1
# Gal3S6S(b1-4)GlcNAc6S = molecular target: Gal3S6S(b1-4)GlcNAc6S
# Procedure, shortened: as §1
# Gal4S(b1-4)GlcNAc = molecular target: Gal4S(b1-4)GlcNAc
# Procedure, shortened: as §1
# Gal4S6S(b1-4)GlcNAc = molecular target: Gal4S6S(b1-4)GlcNAc
# Procedure, shortened: as §1
# Gal6S(b1-4)Glc = molecular target: Gal6S(b1-4)Glc
# Procedure, shortened: as §1
# Gal6S(b1-4)Glc6S = molecular target: Gal6S(b1-4)Glc6S
# Procedure, shortened: as §1
# Gal6S(b1-4)GlcNAc = molecular target: Gal6S(b1-4)GlcNAc
# Procedure, shortened: as §1
# Gal6S(b1-4)GlcNAc6S = molecular target: Gal6S(b1-4)GlcNAc6S
# Procedure, shortened: as §1
# GalNAc(a1-3)Gal = molecular target: GalNAc(a1-3)Gal
# Procedure, shortened: as §1
# GalNAc(a1-3)GalNAc = molecular target: GalNAc(a1-3)GalNAc
# Procedure, shortened: as §1
binder,measurement,setting,value
B1,glycan array binding signal (z-score),Gal(a1-6)Glc,-0.206
same,glycan array binding signal (z-score),Gal(b1-2)Gal,-0.269
same,glycan array binding signal (z-score),Gal(b1-3)Gal,-0.313
same,glycan array binding signal (z-score),Gal(b1-3)Gal(b1-4)GlcNAc,-0.355
same,glycan array binding signal (z-score),Gal(b1-3)GalNAc,-0.328
same,glycan array binding signal (z-score),[1],-0.371
same,glycan array binding signal (z-score),[2],-0.317
same,glycan array binding signal (z-score),[3],-0.367
same,glycan array binding signal (z-score),Gal(b1-3)GlcNAc,-0.285
same,glycan array binding signal (z-score),[4],-0.148
same,glycan array binding signal (z-score),[5],-0.309
same,glycan array binding signal (z-score),[6],0.57
same,glycan array binding signal (z-score),[7],-0.253
same,glycan array binding signal (z-score),[8],1.41
same,glycan array binding signal (z-score),[9],1.06
same,glycan array binding signal (z-score),[10],0.445
same,glycan array binding signal (z-score),[11],1.08
same,glycan array binding signal (z-score),[12],-0.355
same,glycan array binding signal (z-score),[13],-0.271
same,glycan array binding signal (z-score),[14],-0.322
same,glycan array binding signal (z-score),[15],-0.337
same,glycan array binding signal (z-score),[16],-0.166
same,glycan array binding signal (z-score),[17],-0.245
same,glycan array binding signal (z-score),Gal(b1-4)Glc,-0.317
same,glycan array binding signal (z-score),Gal(b1-4)Glc6S,-0.23
same,glycan array binding signal (z-score),Gal(b1-4)GlcNAc,-0.334
same,glycan array binding signal (z-score),[18],-0.318
same,glycan array binding signal (z-score),[19],-0.298
same,glycan array binding signal (z-score),[20],-0.367
same,glycan array binding signal (z-score),[21],-0.299
same,glycan array binding signal (z-score),[22],-0.293
same,glycan array binding signal (z-score),[23],-0.322
same,glycan array binding signal (z-score),[24],-0.342
same,glycan array binding signal (z-score),[25],-0.338
same,glycan array binding signal (z-score),[26],-0.259
same,glycan array binding signal (z-score),[27],-0.376
same,glycan array binding signal (z-score),[28],-0.127
same,glycan array binding signal (z-score),[29],-0.3
same,glycan array binding signal (z-score),[30],-0.109
same,glycan array binding signal (z-score),[31],-0.287
same,glycan array binding signal (z-score),[32],-0.294
same,glycan array binding signal (z-score),Gal3S(b1-3)GalNAc,-0.365
same,glycan array binding signal (z-score),Gal3S(b1-3)GlcNAc,-0.23
same,glycan array binding signal (z-score),[33],4.55
same,glycan array binding signal (z-score),Gal3S(b1-4)Glc,-0.261
same,glycan array binding signal (z-score),Gal3S(b1-4)Glc6S,-0.245
same,glycan array binding signal (z-score),Gal3S(b1-4)GlcNAc,-0.309
same,glycan array binding signal (z-score),Gal3S(b1-4)GlcNAc6S,-0.241
same,glycan array binding signal (z-score),[34],3.13
same,glycan array binding signal (z-score),Gal3S4S(b1-4)GlcNAc,-0.301
same,glycan array binding signal (z-score),Gal3S6S(b1-4)GlcNAc,-0.192
same,glycan array binding signal (z-score),Gal3S6S(b1-4)GlcNAc6S,0.03
same,glycan array binding signal (z-score),Gal4S(b1-4)GlcNAc,-0.17
same,glycan array binding signal (z-score),Gal4S6S(b1-4)GlcNAc,-0.159
same,glycan array binding signal (z-score),Gal6S(b1-4)Glc,-0.319
same,glycan array binding signal (z-score),Gal6S(b1-4)Glc6S,-0.175
same,glycan array binding signal (z-score),Gal6S(b1-4)GlcNAc,-0.326
same,glycan array binding signal (z-score),Gal6S(b1-4)GlcNAc6S,-0.262
same,glycan array binding signal (z-score),GalNAc(a1-3)Gal,-0.289
same,glycan array binding signal (z-score),GalNAc(a1-3)GalNAc,-0.295
